# Results: the supplement of paper PMC11417369
# ± gives the standard deviation of the averaged measurements. The list shows a part of the results.
# Test system: PfAP2-LT AP2 domain (GST-tagged)
# Experiment: gcPBM binding intensity (ln(normalized median fluorescence intensity)); higher = stronger DNA binding
# Summary of the method: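 An Agilent 4 × 180k array carrying primer-extended double-stranded 36-bp intergenic genomic probes and negative controls received GST-tagged P. falciparum DNA-binding domains expressed in E. coli, about 25 μg on average, for 1 h. The binding buffer contained 1× PBS, 1% milk, 0.2 mg/ml BSA, 0.5% salmon testes DNA and 0.03% Triton X-100. Binding intensity is the top Masliner-normalised natural-log median intensity across replicate spots of either probe orientation, read after Alexa488 anti-GST antibody staining and a 488 nm scan.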
row,Sequence,gcPBM binding intensity (ln)
1,TGTGTTATATATAAAGAAAAAAAAAAAAAATATATA [CACACA_negctrl_site567],8.47 ± 0.55
2,AAAAATTTAATTATTTGTACATAAAATACATTTCTG [XGTACX_site791],8.49 ± 0.56
3,TATTCCTATATAAAGACACACATATGTAACTACGAT [CACACA_site4139],8.94 ± 0.43
4,AATTTTTATTTGTACACACATACATATATATTATAT [CACACA_site993],9.25 ± 0.41
5,CACAAAATAAATTAAACACACAACATCATAGATGTA [CACACA_site4619],8.9 ± 0.45
6,TTTATATATTTCATAATACACACGAAAAAAAAAAAA [CACACA_site2970],8.53 ± 0.42
7,TGTCATCATCTTAAATGTACAAAAAGGAAATATAAA [XGTACX_site1529],8.6 ± 0.52
8,TTTTTATTTACACTTTTTATTTATATATTATGTACG [CACACA_negctrl_site158],8.85 ± 0.6
9,ATATAATCAGCTTCTCTTTTATGCTAAAAAAAAAAA [CACACA_negctrl_site1310],8.25 ± 0.3
10,ATAAATAATATAAATACACACTAAAAAAAATATATA [CACACA_site4456],8.91 ± 0.5
11,TTAGTTTATTGGTACTGTACTTTTTTTTTCTCCATT [XGTACX_site8618],8.91 ± 0.42
12,ATTTTTGAACGGTACAGTACAGAATTTAATTAACCC [XGTACX_site47],8.77 ± 0.38
13,TATCATATATGAAGGTGTACGATTTATTATATAAAT [XGTACX_site7010],8.77 ± 0.42
14,TTATTTAAAATTTTTATGCGTATATATATAGGAACA [CACACA_negctrl_site388],8.35 ± 0.39
15,TTGCATTACGAACATACACACAGAATAACTGAAAAC [CACACA_site3025],9.16 ± 0.39
16,TTCGATGAATATACAAGTACATATCCTTACGAACTG [XGTACX_site1650],8.63 ± 0.41
17,TTTTTATTAAGACATGCATGGAAACGCACTATTTTA [TGCATGCA_site999],8.71 ± 0.43
18,TATATATGCATTAAATGATGTTCCTGTTTTTTAAAA [CACACA_negctrl_site1378],8.45 ± 0.37
19,ATACGAAGTACGTACACACACTTATATGTTACTAAA [CACACA_site7812],9.26 ± 0.33

row,Sequence,gcPBM binding intensity (ln)
1,AATAAATAAATATATACACACATATATGTCTACATA [CACACA_site3158],9.14 ± 0.43
2,TTTATATCATTTCTTAAAAAAAAGGAGGTAATAGAC [TGCATGCA_negctrl_site555],8.61 ± 0.37
3,GTTAAGCAATATATATGTACTTATGGAATAGAAAAA [XGTACX_site3693],8.68 ± 0.47
4,AAGTTACAGAATATCACACATAAATTATCTGTATAT [CACACA_site5116],8.79 ± 0.4
5,TCAATTAATTATTTTTGTACACAAGAATTACTGAAT [XGTACX_site6401],8.56 ± 0.44
6,GTGTGATATAATTTTTTTAGAGCTTTATAATATTAT [CACACA_negctrl_site233],8.62 ± 0.42
7,TATGTTGATGATATTACACACCCAATGAGAAAAGGA [CACACA_site7060],8.94 ± 0.41
8,CAACCATTTGTAGGTAAACACACATTATTATTAATA [CACACA_site8842],8.88 ± 0.43
9,TGTTTATACATCAGGTGTACGCAAAATAATTGTATG [XGTACX_site206],8.87 ± 0.39
10,TTTATTTACTATTAAAGTACTAAATCATATAATTAT [XGTACX_site2580],8.56 ± 0.45
11,TATACATATACATATACACACACACCCATAAATAAA [CACACA_site8372],9.8 ± 0.22
12,TTAACACATGCTTGGTCACACACGTATGCATATTTA [CACACA_site2127],9.3 ± 0.32
13,TTTGTCAAATAATATTGTACTAAAAAATTTTGCCTT [XGTACX_site7485],8.38 ± 0.51
14,TATTTGTAATATAACACACACAAAAAAAGACTCGGA [CACACA_site1681],9.31 ± 0.3
15,ATACACACAGCCTAAACATGCATATAGAAAAAAGAA [TGCATGCA_site1028],9.14 ± 0.48
16,ATATATATATAATAAAGTACAAATTCTAAATGATAT [XGTACX_site570],8.86 ± 0.36
17,TATCTTATGTCTGAAAGTACAAATTTTTTTCTACTT [XGTACX_site2208],8.52 ± 0.38
18,ACTACGAATGGTAGAGTGCAGTCTGGAGAAAAGTAC [GTGCAC_site9681],9.02 ± 0.47
19,CTTTTTTTTTTTTTTGCGCACTGTTTAAAGGGAAAT [GTGCAC_site9815],8.83 ± 0.54

row,Sequence,gcPBM binding intensity (ln)
1,ATTATCTATCGTTTTTGTACTTACACCTTAATACAA [XGTACX_site7337],8.95 ± 0.47
2,AAATATTTTTAGAGTGCATGTAATAAAAATATAATG [TGCATGCA_site19],8.72 ± 0.47
3,GTGCAAAATATTTTTACACACAAATTTTTACAACAG [CACACA_site3357],8.98 ± 0.42
4,AAAAATAAATAAGACACACACAAAAAAAAAAAAAAA [CACACA_site1432],9.05 ± 0.48
5,AAATGAGATATAAAATGTACATATTGTAAGTAAACA [XGTACX_site1237],9.03 ± 0.45
6,TTAATTATATCAGGACGTACTAATATAAATATATAT [XGTACX_site8909],8.7 ± 0.44
7,GGGATATATTATTATACACACATATATAAAAGCTTT [CACACA_site2445],9.03 ± 0.41
8,ATATGACTGTTCATTTGTACGTATAATTATATACGT [XGTACX_site3372],8.92 ± 0.38
9,AAATAATATATTCTATATAATAAATTATAAATATAA [GTGCAC_negctrl_site558],8.23 ± 0.5
10,ATATATATATATATATATATATATATATATTATATA [XGTACX_negctrl_site48],9.12 ± 0.092
11,ATACAACTAATAAGTAGTACAATATACATATATTAT [XGTACX_site7086],8.89 ± 0.49
12,TTTTTTTTTTTTTTTTATTTATATATATATATATAT [CACACA_negctrl_site582],8.75 ± 0.35
13,AAAAAAAATGAAAGGTGTACACATACAAACATAGAA [XGTACX_site3517],9.4 ± 0.57
14,TAATTTAGATATATAAAGAATTAAAGTTAACATTCT [CACACA_negctrl_site726],8.25 ± 0.44
15,TTTTTCAGATCCTATATAGTATCATATAAATTCCAT [CACACA_negctrl_site56],8.49 ± 0.37
16,TTAAGAAAAAAAAAAAGTACACACATATAATATATA [XGTACX_site6268],8.94 ± 0.56
17,CGTTGGTATTAAAAGGTGCAATGAAATAATATATTA,8.66 ± 0.52
18,AAGATCGCATGAAATGAACACACATAAAAAAAATAT [CACACA_site9353],9.3 ± 0.54
